{"source": "the supplement of paper PMC8728848", "test_in_all_cases": "glycan array binding signal (z-score within array); higher = stronger binding", "conditions_in_all_cases": "glycan notation: IUPAC condensed, linker removed", "key": {"[1]": {"biological_target": "Fuc(a1-3)[Gal(b1-4)]Glc6S", "how_it_was_run": "(§1)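 Glycan array data were curated from 3228 arrays in the Consortium for Functional Glycomics database and kept only where the protein sequence was available. Glycan names were converted to IUPAC-condensed notation, and columns mapping to the same glycan were averaged. The binding signal is a within-array Z-score, averaged across arrays of the same protein sequence at different concentrations or buffers and across linkers. Negative Z-scores can be read as non-binding.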"}, "[2]": {"biological_target": "Fuc(a1-3)[Gal(b1-4)]GlcNAc", "how_it_was_run": "as §1"}, "[3]": {"biological_target": "Fuc(a1-3)[Gal(b1-4)]GlcNAc(b1-2)Man", "how_it_was_run": "as §1"}, "[4]": {"biological_target": "Fuc(a1-3)[Gal(b1-4)]GlcNAc(b1-2)Man(a1-3)[Fuc(a1-3)[Gal(b1-4)]GlcNAc(b1-2)Man(a1-6)]Man(b1-4)GlcNAc(b1-4)GlcNAc", "how_it_was_run": "as §1"}, "[5]": {"biological_target": "Fuc(a1-3)[Gal(b1-4)]GlcNAc(b1-2)Man(a1-3)[Fuc(a1-3)[Gal(b1-4)]GlcNAc(b1-2)Man(a1-6)]Man(b1-4)GlcNAc(b1-4)[Fuc(a1-6)]GlcNAc", "how_it_was_run": "as §1"}, "[6]": {"biological_target": "Fuc(a1-3)[Gal(b1-4)]GlcNAc(b1-3)Gal(b1-3)[Fuc(a1-4)]GlcNAc", "how_it_was_run": "as §1"}, "[7]": {"biological_target": "Fuc(a1-3)[Gal(b1-4)]GlcNAc(b1-3)Gal(b1-4)[Fuc(a1-3)]GlcNAc", "how_it_was_run": "as §1"}, "[8]": {"biological_target": "Fuc(a1-3)[Gal(b1-4)]GlcNAc(b1-3)Gal(b1-4)[Fuc(a1-3)]GlcNAc(b1-3)Gal(b1-4)[Fuc(a1-3)]GlcNAc", "how_it_was_run": "as §1"}, "[9]": {"biological_target": "Fuc(a1-3)[Gal(b1-4)]GlcNAc(b1-3)GalNAc", "how_it_was_run": "as §1"}, "[10]": {"biological_target": "Fuc(a1-3)[Gal(b1-4)]GlcNAc(b1-6)GalNAc", "how_it_was_run": "as §1"}, "[11]": {"biological_target": "Fuc(a1-3)[Gal(b1-4)]GlcNAc(b1-6)[Gal(b1-3)GlcNAc(b1-3)]Gal(b1-4)Glc", "how_it_was_run": "as §1"}, "[12]": {"biological_target": "Fuc(a1-3)[Gal(b1-4)]GlcNAc6S", "how_it_was_run": "as §1"}, "[13]": {"biological_target": "Fuc(a1-3)[Gal3S(b1-4)]Glc", "how_it_was_run": "as §1"}, "[14]": {"biological_target": "Fuc(a1-3)[Gal3S(b1-4)]GlcNAc", "how_it_was_run": "as §1"}, "[15]": {"biological_target": "Fuc(a1-3)[Gal3S(b1-4)]GlcNAc6S", "how_it_was_run": "as §1"}, "[16]": {"biological_target": "Fuc(a1-3)[GalNAc(b1-4)]GlcNAc", "how_it_was_run": "as §1"}, "[17]": {"biological_target": "Fuc(a1-3)[GalNAc(b1-4)]GlcNAc6S", "how_it_was_run": "as §1"}, "Fuc(a1-4)GlcNAc": {"biological_target": "Fuc(a1-4)GlcNAc", "how_it_was_run": "as §1"}, "Fuc(b1-3)GlcNAc": {"biological_target": "Fuc(b1-3)GlcNAc", "how_it_was_run": "as §1"}, "Gal(a1-2)Gal": {"biological_target": "Gal(a1-2)Gal", "how_it_was_run": "as §1"}, "Gal(a1-3)Gal": {"biological_target": "Gal(a1-3)Gal", "how_it_was_run": "as §1"}, "Gal(a1-3)Gal(b1-3)GlcNAc": {"biological_target": "Gal(a1-3)Gal(b1-3)GlcNAc", "how_it_was_run": "as §1"}, "[18]": {"biological_target": "Gal(a1-3)Gal(b1-3)GlcNAc(b1-2)Man", "how_it_was_run": "as §1"}, "[19]": {"biological_target": "Gal(a1-3)Gal(b1-3)GlcNAc(b1-2)Man(a1-3)[Gal(a1-3)Gal(b1-3)GlcNAc(b1-2)Man(a1-6)]Man(b1-4)GlcNAc(b1-4)GlcNAc", "how_it_was_run": "as §1"}, "[20]": {"biological_target": "Gal(a1-3)Gal(b1-3)GlcNAc(b1-3)GalNAc", "how_it_was_run": "as §1"}, "[21]": {"biological_target": "Gal(a1-3)Gal(b1-3)GlcNAc(b1-6)GalNAc", "how_it_was_run": "as §1"}, "[22]": {"biological_target": "Gal(a1-3)Gal(b1-3)[Fuc(a1-4)]GlcNAc(b1-2)Man(a1-3)[Gal(a1-3)Gal(b1-3)[Fuc(a1-4)]GlcNAc(b1-2)Man(a1-6)]Man(b1-4)GlcNAc(b1-4)GlcNAc", "how_it_was_run": "as §1"}, "Gal(a1-3)Gal(b1-4)Glc": {"biological_target": "Gal(a1-3)Gal(b1-4)Glc", "how_it_was_run": "as §1"}, "Gal(a1-3)Gal(b1-4)GlcNAc": {"biological_target": "Gal(a1-3)Gal(b1-4)GlcNAc", "how_it_was_run": "as §1"}, "[23]": {"biological_target": "Gal(a1-3)Gal(b1-4)GlcNAc(b1-2)Man", "how_it_was_run": "as §1"}, "[24]": {"biological_target": "Gal(a1-3)Gal(b1-4)GlcNAc(b1-2)Man(a1-3)[Gal(a1-3)Gal(b1-4)GlcNAc(b1-2)Man(a1-6)]Man(b1-4)GlcNAc(b1-4)GlcNAc", "how_it_was_run": "as §1"}, "[25]": {"biological_target": "Gal(a1-3)Gal(b1-4)GlcNAc(b1-3)GalNAc", "how_it_was_run": "as §1"}, "[26]": {"biological_target": "Gal(a1-3)Gal(b1-4)GlcNAc(b1-6)GalNAc", "how_it_was_run": "as §1"}, "[27]": {"biological_target": "Gal(a1-3)Gal(b1-4)[Fuc(a1-3)]GlcNAc", "how_it_was_run": "as §1"}, "[28]": {"biological_target": "Gal(a1-3)Gal(b1-4)[Fuc(a1-3)]GlcNAc(b1-2)Man(a1-3)[Gal(a1-3)Gal(b1-4)[Fuc(a1-3)]GlcNAc(b1-2)Man(a1-6)]Man(b1-4)GlcNAc(b1-4)GlcNAc", "how_it_was_run": "as §1"}, "Gal(a1-3)GalNAc": {"biological_target": "Gal(a1-3)GalNAc", "how_it_was_run": "as §1"}, "[29]": {"biological_target": "Gal(a1-3)[Gal(a1-4)]Gal(b1-4)GlcNAc", "how_it_was_run": "as §1"}, "[30]": {"biological_target": "Gal(a1-4)Gal(b1-3)GlcNAc(b1-2)Man(a1-3)[Gal(a1-4)Gal(b1-3)GlcNAc(b1-2)Man(a1-6)]Man(b1-4)GlcNAc(b1-4)GlcNAc", "how_it_was_run": "as §1"}, "Gal(a1-4)Gal(b1-4)Glc": {"biological_target": "Gal(a1-4)Gal(b1-4)Glc", "how_it_was_run": "as §1"}, "Gal(a1-4)Gal(b1-4)GlcNAc": {"biological_target": "Gal(a1-4)Gal(b1-4)GlcNAc", "how_it_was_run": "as §1"}, "[31]": {"biological_target": "Gal(a1-4)Gal(b1-4)GlcNAc(b1-2)Man(a1-3)[Gal(a1-4)Gal(b1-4)GlcNAc(b1-2)Man(a1-6)]Man(b1-4)GlcNAc(b1-4)GlcNAc", "how_it_was_run": "as §1"}, "[32]": {"biological_target": "Gal(a1-4)Gal(b1-4)GlcNAc(b1-3)Gal(b1-4)Glc", "how_it_was_run": "as §1"}, "Gal(a1-4)GlcNAc": {"biological_target": "Gal(a1-4)GlcNAc", "how_it_was_run": "as §1"}, "Gal(a1-6)Glc": {"biological_target": "Gal(a1-6)Glc", "how_it_was_run": "as §1"}, "Gal(b1-2)Gal": {"biological_target": "Gal(b1-2)Gal", "how_it_was_run": "as §1"}}, "note": "This is one part of the list."}
{"binder": "Clrb (Mus musculus) (protein) ITGATKTEQIPVNKTYAACPQNWIGVENKCFYFSEYPSNWTFAQAFCMAQEAQLARFDNQDELNFLMRYKANFDSWIGLHRESSEHPWKWTDNTEYNNTIPIRGEERFAYLNNNGISSTRIYSLRMWICSKLNSYSLHCQTPFFPSGTKHHHHHHHHG", "values": [{"measurement": "glycan array binding signal (z-score)", "setting": "[1]", "value": -0.518}, {"measurement": "glycan array binding signal (z-score)", "setting": "[2]", "value": -0.373}, {"measurement": "glycan array binding signal (z-score)", "setting": "[3]", "value": -0.25}, {"measurement": "glycan array binding signal (z-score)", "setting": "[4]", "value": -0.413}, {"measurement": "glycan array binding signal (z-score)", "setting": "[5]", "value": -0.437}, {"measurement": "glycan array binding signal (z-score)", "setting": "[6]", "value": -0.381}, {"measurement": "glycan array binding signal (z-score)", "setting": "[7]", "value": -0.446}, {"measurement": "glycan array binding signal (z-score)", "setting": "[8]", "value": -0.41}, {"measurement": "glycan array binding signal (z-score)", "setting": "[9]", "value": -0.299}, {"measurement": "glycan array binding signal (z-score)", "setting": "[10]", "value": -0.162}, {"measurement": "glycan array binding signal (z-score)", "setting": "[11]", "value": -0.509}, {"measurement": "glycan array binding signal (z-score)", "setting": "[12]", "value": -0.295}, {"measurement": "glycan array binding signal (z-score)", "setting": "[13]", "value": -0.148}, {"measurement": "glycan array binding signal (z-score)", "setting": "[14]", "value": -0.326}, {"measurement": "glycan array binding signal (z-score)", "setting": "[15]", "value": -0.277}, {"measurement": "glycan array binding signal (z-score)", "setting": "[16]", "value": 1.85}, {"measurement": "glycan array binding signal (z-score)", "setting": "[17]", "value": -0.315}, {"measurement": "glycan array binding signal (z-score)", "setting": "Fuc(a1-4)GlcNAc", "value": -0.357}, {"measurement": "glycan array binding signal (z-score)", "setting": "Fuc(b1-3)GlcNAc", "value": -0.294}, {"measurement": "glycan array binding signal (z-score)", "setting": "Gal(a1-2)Gal", "value": -0.306}, {"measurement": "glycan array binding signal (z-score)", "setting": "Gal(a1-3)Gal", "value": -0.295}, {"measurement": "glycan array binding signal (z-score)", "setting": "Gal(a1-3)Gal(b1-3)GlcNAc", "value": -0.098}, {"measurement": "glycan array binding signal (z-score)", "setting": "[18]", "value": -0.331}, {"measurement": "glycan array binding signal (z-score)", "setting": "[19]", "value": -0.454}, {"measurement": "glycan array binding signal (z-score)", "setting": "[20]", "value": -0.437}, {"measurement": "glycan array binding signal (z-score)", "setting": "[21]", "value": -0.328}, {"measurement": "glycan array binding signal (z-score)", "setting": "[22]", "value": -0.064}, {"measurement": "glycan array binding signal (z-score)", "setting": "Gal(a1-3)Gal(b1-4)Glc", "value": -0.317}, {"measurement": "glycan array binding signal (z-score)", "setting": "Gal(a1-3)Gal(b1-4)GlcNAc", "value": -0.349}, {"measurement": "glycan array binding signal (z-score)", "setting": "[23]", "value": -0.442}, {"measurement": "glycan array binding signal (z-score)", "setting": "[24]", "value": -0.409}, {"measurement": "glycan array binding signal (z-score)", "setting": "[25]", "value": -0.505}, {"measurement": "glycan array binding signal (z-score)", "setting": "[26]", "value": -0.486}, {"measurement": "glycan array binding signal (z-score)", "setting": "[27]", "value": 0.12}, {"measurement": "glycan array binding signal (z-score)", "setting": "[28]", "value": -0.549}, {"measurement": "glycan array binding signal (z-score)", "setting": "Gal(a1-3)GalNAc", "value": -0.059}, {"measurement": "glycan array binding signal (z-score)", "setting": "[29]", "value": -0.144}, {"measurement": "glycan array binding signal (z-score)", "setting": "[30]", "value": -0.293}, {"measurement": "glycan array binding signal (z-score)", "setting": "Gal(a1-4)Gal(b1-4)Glc", "value": -0.22}, {"measurement": "glycan array binding signal (z-score)", "setting": "Gal(a1-4)Gal(b1-4)GlcNAc", "value": -0.1}, {"measurement": "glycan array binding signal (z-score)", "setting": "[31]", "value": -0.426}, {"measurement": "glycan array binding signal (z-score)", "setting": "[32]", "value": -0.419}, {"measurement": "glycan array binding signal (z-score)", "setting": "Gal(a1-4)GlcNAc", "value": -0.362}, {"measurement": "glycan array binding signal (z-score)", "setting": "Gal(a1-6)Glc", "value": -0.176}, {"measurement": "glycan array binding signal (z-score)", "setting": "Gal(b1-2)Gal", "value": -0.244}]}
